# Assay results as given in paper PMC5892938.
# This is one part of the list. At the low end of the ranking, values are background and their order means little.
# Target: GST-SBP-SLBP (stem-loop binding protein) (UniProt Q14493)
# Assay: targeted RNA Bind-n-Seq;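 note: DESeq read counts versus GST-SBP nonspecific binding control pulldown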
# Settings: RBNS binding buffer: 25 mM Tris pH 7.5, 150 mM KCl, 3 mM MgCl2, 0.1% Tween, 0.5 mg/mL BSA, 1 mM DTT; 27 nM protein, 750 pM RNA pool; temperature not stated; high values mean tight binding
row,Sequence,binding signal (log2 fold change)
1,GGUCACGUCUCAAUCAACUCUACUCCCAGGGAAAACCCUGGUUUUUUCAACAGCUCGCAGUCAAG,-0.0799
2,GGUCACGUCUCAAUCAACUCUAUCUCAGGAGUUUCCUCCUGCAUUUUCAACAGCUCGCAGUCAAG,0.0355
3,GGUCACGUCUCAAUCAACUCUUUUUCAGGAGUUUUCUCCUGCAAUUUCAACAGCUCGCAGUCAAG,0.065
4,GGUCACGUCUCAAUCAACUCAAUCUCCAGGGAAAUCCCUGGCUUACUCAACAGCUCGCAGUCAAG,-0.119
5,GGUCACGUCUCAAUCAACUCUAAAGAGGGGGGGAAAACCCCUUUGCCCUCAUUCUCAACAGCUCGCAGUCAAG,-0.168
6,GGUCACGUCUCAAUCAACUCAAUCGAGGGGGGGAAAACCCCUUUACCCUCAACAUCAACAGCUCGCAGUCAAG,-0.244
7,GGUCACGUCUCAAUCAACUCAUUUCCCAGGGAAACCCCUGGCUUUUUCAACAGCUCGCAGUCAAG,-0.0992
8,GGUCACGUCUCAAUCAACUCUAUUUCCAGGGAAAGCCCUGGUUUAUUCAACAGCUCGCAGUCAAG,0.0194
9,GGUCACGUCUCAAUCAACUCAACUCCAGGAGUUUUCUCCUGCUAUUUCAACAGCUCGCAGUCAAG,-0.194
10,GGUCACGUCUCAAUCAACUCAGUCCCAGGAGUUUACUCCUGCUAUUUCAACAGCUCGCAGUCAAG,-0.14
11,GGUCACGUCUCAAUCAACUCUUUUUCCAGGGAAAUCCCUGGUAGUCUCAACAGCUCGCAGUCAAG,0.088
12,GGUCACGUCUCAAUCAACUCUAUUUCCAGGGAAACCCCUGGUUUUUUCAACAGCUCGCAGUCAAG,-0.229
13,GGUCACGUCUCAAUCAACUCAUCCUCCAGGGAAAUCCCUGGUAAACUCAACAGCUCGCAGUCAAG,0.152
14,GGUCACGUCUCAAUCAACUCUUAAGAGGGGGGGAAAACCCCUUUGCCCUCAUCUUCAACAGCUCGCAGUCAAG,-0.216
15,GGUCACGUCUCAAUCAACUCAUUCCCAGGAGUUUACUCCUGUAUACUCAACAGCUCGCAGUCAAG,-0.0371
16,GGUCACGUCUCAAUCAACUCUUCGUCCAGGGAAAUCCCUGGUAAUUUCAACAGCUCGCAGUCAAG,-0.0121
17,GGUCACGUCUCAAUCAACUCAGUCUCAGGAGUUUACUCCUGUAUAUUCAACAGCUCGCAGUCAAG,-0.0939
18,GGUCACGUCUCAAUCAACUCUUCUCCCAGGGAAAUCCCUGGUAUUCUCAACAGCUCGCAGUCAAG,0.0101
19,GGUCACGUCUCAAUCAACUCAGUCUCCAGGGAAACCCCUGGUAUAUUCAACAGCUCGCAGUCAAG,-0.0261
20,GGUCACGUCUCAAUCAACUCAUCCUCCAGGGAAACCCCUGGUAAUUUCAACAGCUCGCAGUCAAG,0.0107
21,GGUCACGUCUCAAUCAACUCAUCCUCCAGGGAAAUCCCUGGUAAUCUCAACAGCUCGCAGUCAAG,-0.0508
22,GGUCACGUCUCAAUCAACUCAUAAGAGGGGGGGAAAACCCCUUUACCCUCGAAUUCAACAGCUCGCAGUCAAG,-0.391
23,GGUCACGUCUCAAUCAACUCUUUCCCCAGGGAAAUCCCUGGCUAUGUCAACAGCUCGCAGUCAAG,0.155
24,GGUCACGUCUCAAUCAACUCAAACGAGGGGGGGAAAACCCCUUUGCCCUCACUAUCAACAGCUCGCAGUCAAG,-0.27

row,Sequence,binding signal (log2 fold change)
1,GGUCACGUCUCAAUCAACUCCAAAGAGGGGGGGAAAACCCCUUUACCCUCCAUCUCAACAGCUCGCAGUCAAG,-0.303
2,GGUCACGUCUCAAUCAACUCAGUUUCCAGGGAAAUCCCUGGCUUUCUCAACAGCUCGCAGUCAAG,0.0804
3,GGUCACGUCUCAAUCAACUCAUUCUCCAGGGAAACCCCUGGCUAACUCAACAGCUCGCAGUCAAG,-0.122
4,GGUCACGUCUCAAUCAACUCAUCCCCAGGAGUUUACUCCUGUAUUUUCAACAGCUCGCAGUCAAG,-0.0755
5,GGUCACGUCUCAAUCAACUCUAUCUCAGGAGUUUCCUCCUGUAUAUUCAACAGCUCGCAGUCAAG,0.251
6,GGUCACGUCUCAAUCAACUCAACAGAGGGGGGGAAAACCCCUUUACCCUCAAAAUCAACAGCUCGCAGUCAAG,0.167
7,GGUCACGUCUCAAUCAACUCAUCCCCAGGAGUUUUCUCCUGCUAAUUCAACAGCUCGCAGUCAAG,0.0546
8,GGUCACGUCUCAAUCAACUCUUCCCCCAGGGAAAGCCCUGGUAUAUUCAACAGCUCGCAGUCAAG,0.208
9,GGUCACGUCUCAAUCAACUCAUCUUCAGGAGUUUCCUCCUGCUUUGUCAACAGCUCGCAGUCAAG,0.0416
10,GGUCACGUCUCAAUCAACUCAGUUCCAGGAGUUUCCUCCUGUUUAUUCAACAGCUCGCAGUCAAG,-0.223
11,GGUCACGUCUCAAUCAACUCUUCUUCCAGGGAAAACCCUGGUUUUUUCAACAGCUCGCAGUCAAG,-0.0563
12,GGUCACGUCUCAAUCAACUCAACUUCCAGGGAAAGCCCUGGUAAAUUCAACAGCUCGCAGUCAAG,-0.146
13,GGUCACGUCUCAAUCAACUCUAUCCCCAGGGAAACCCCUGGCAAUUUCAACAGCUCGCAGUCAAG,0.131
14,GGUCACGUCUCAAUCAACUCUUCCCCCAGGGAAAGCCCUGGUAAUGUCAACAGCUCGCAGUCAAG,0.156
15,GGUCACGUCUCAAUCAACUCAACUUCAGGAGUUUCCUCCUGCUAUGUCAACAGCUCGCAGUCAAG,0.231
16,GGUCACGUCUCAAUCAACUCAGUUUCAGGAGUUUUCUCCUGCAUUUUCAACAGCUCGCAGUCAAG,0.0775
17,GGUCACGUCUCAAUCAACUCAUCUUCCAGGGAAAUCCCUGGUAAUUUCAACAGCUCGCAGUCAAG,0.0492
18,GGUCACGUCUCAAUCAACUCAUUCUCCAGGGAAAGCCCUGGCUAUUUCAACAGCUCGCAGUCAAG,0.0292
19,GGUCACGUCUCAAUCAACUCUACUUCAGGAGUUUACUCCUGUAUUUUCAACAGCUCGCAGUCAAG,-0.161
20,GGUCACGUCUCAAUCAACUCAAACGAGGGGGGGAAAACCCCUUUACCCUCAUUAUCAACAGCUCGCAGUCAAG,-0.205
21,GGUCACGUCUCAAUCAACUCUUUCGAGGGGGGGAAAACCCCUUUACCCUCAAUUUCAACAGCUCGCAGUCAAG,0.103
22,GGUCACGUCUCAAUCAACUCUUUCCCCAGGGAAAACCCUGGCAAAUUCAACAGCUCGCAGUCAAG,-0.0629
23,GGUCACGUCUCAAUCAACUCUAAAGAGGGGGGGAAAACCCCUUUGCCCUCACUAUCAACAGCUCGCAGUCAAG,0.331
